# This is one part of the list. Repeats are few or missing, and single values can be far off.
# Experiments:
# Test in all cases: cell count relative to DMSO control; melanoma cells; higher = more viable cells
# Settings in all cases: library dose: standard library concentration; 72 h
# [1] = system: G361
# [2] = system: IPC-298
# [3] = system: IST-MEL1
# [4] = system: LB2518-MEL
# [5] = system: LOXIMVI
# [6] = system: MEL-HO
# [7] = system: MZ2-MEL
# [8] = system: MeWo
# [9] = system: RPMI7951
# [10] = system: RVH-421
# [11] = system: SkMel28
# [12] = system: SkMel2
# [13] = system: SkMel30
# [14] = system: SkMel5
# [15] = system: UACC257
# [16] = system: UACC62
# [17] = system: WM115
# [18] = system: WM1716
# [19] = system: WM1745
# [20] = system: WM3526
# 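Note: cells treated in 1,536-well plates, then fixed and DAPI-stained, with nuclei counted from automated high-throughput microscope images.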
Compound,cell count [1] [%],cell count [2] [%],cell count [3] [%],cell count [4] [%],cell count [5] [%],cell count [6] [%],cell count [7] [%],cell count [8] [%],cell count [9] [%],cell count [10] [%],cell count [11] [%],cell count [12] [%],cell count [13] [%],cell count [14] [%],cell count [15] [%],cell count [16] [%],cell count [17] [%],cell count [18] [%],cell count [19] [%],cell count [20] [%]
"O=C(O)C(=O)Nc1sc2c(c1C(=O)O)CCNC2 + C/C(O)=C(\C#N)C(=O)Nc1cc(Br)ccc1Br [LFM-A13] (first compound 8.33333 µM, partner dose 10 µM)",110,95.6,110,122,112,83.5,78.9,77.3,104,128,93.9,111,104,77.3,85.5,127,92.4,112,70.8,88.2
"CC(C)C[C@H](NC(=O)[C@H](Cc1ccccc1)NC(=O)c1cnccn1)B(O)O [Bortezomib] + C[As](C)SC[C@H](NC(=O)CC[C@H](N)C(=O)O)C(=O)NCC(=O)O [Darinaparsin] (first compound 0.005 µM, partner dose 2 µM)",1.38,12.2,10.8,3.51,18.7,42.7,7.43,17.7,5.91,16.4,19.6,35.4,21.2,19.7,77.5,62.9,23.9,17.7,44.9,25.3
"Oc1cc(-c2nc(-c3ccccc3)[nH]c2-c2ccncc2)ccc1Cl + C/C(O)=C(\C#N)C(=O)Nc1cc(Br)ccc1Br [LFM-A13] (first compound 1 µM, partner dose 10 µM)",56.7,88.5,89.5,102,105,94.1,99.8,87.1,85.8,86.6,35.9,38.7,84.1,64.8,101,64.5,48.1,78,65.1,49.9
"C=CCn1c(=O)c2cnc(Nc3ccc(N4CCN(C)CC4)cc3)nc2n1-c1cccc(C(C)(C)O)n1 + O=C(Oc1ccc([N+](=O)[O-])cc1)N1CCC(C(O)(c2ccc3c(c2)OCO3)c2ccc3c(c2)OCO3)CC1 [JZL184] (first compound 0.1 µM, partner dose 5 µM)",92.5,74.3,95.1,61.5,95.3,104,90.6,63.8,72.6,82.4,24.3,67.2,59.1,47.7,83.1,54.1,80.2,67.6,53.9,57
"c1cc(-c2cnn3cc(-c4ccc(OCCN5CCCCC5)cc4)cnc23)ccn1 [Dorsomorphin] + O=C(Oc1ccc([N+](=O)[O-])cc1)N1CCC(C(O)(c2ccc3c(c2)OCO3)c2ccc3c(c2)OCO3)CC1 [JZL184] (first compound 2 µM, partner dose 5 µM)",66.5,80.7,108,58.1,124,87.3,72,82.1,65.4,108,58.7,94.9,87.6,58.5,81.5,52.8,76,94.6,40.9,63.6
"Cc1cc(Nc2cc(N3CCN(C)CC3)nc(Sc3ccc(NC(=O)C4CC4)cc3)n2)n[nH]1 [Tozasertib] + C[As](C)SC[C@H](NC(=O)CC[C@H](N)C(=O)O)C(=O)NCC(=O)O [Darinaparsin] (first compound 0.03 µM, partner dose 2 µM)",83.1,91.7,98.5,72.8,97.9,81.2,75.4,71.6,97.1,70.7,73.7,92.9,91.4,61.7,81.7,55.9,77.6,56.2,60.9,81.5
"C#Cc1cccc(Nc2ncnc3cc(OCCOC)c(OCCOC)cc23)c1 [erlotinib] + C[As](C)SC[C@H](NC(=O)CC[C@H](N)C(=O)O)C(=O)NCC(=O)O [Darinaparsin] (first compound 4 µM, partner dose 2 µM)",55.1,58.2,81.9,62.6,80.9,64.5,71,67.3,97.6,64.8,54.1,78.2,53.3,48.2,81.7,54,61.5,63.6,68.8,54.6
"O=C(CCCCCCC(=O)Nc1ccccc1)NO [vorinostat] + C/C(O)=C(\C#N)C(=O)Nc1cc(Br)ccc1Br [LFM-A13] (first compound 0.4 µM, partner dose 10 µM)",84.4,89.9,116,79.9,82.8,94.7,82.8,91.7,75.6,18.1,54.3,91.3,81,85.3,64.4,74,99.9,117,77,82.3
"Clc1ccc(Nc2nnc(Cc3ccncc3)c3ccccc23)cc1 [vatalanib] + C[As](C)SC[C@H](NC(=O)CC[C@H](N)C(=O)O)C(=O)NCC(=O)O [Darinaparsin] (first compound 10 µM, partner dose 2 µM)",73.2,70.2,75,72.7,108,54.4,61.2,67.7,71,65.1,55.6,83.2,74.9,46.4,40.7,61.1,73.9,67.5,62.6,64.6
"Oc1nc(-c2ccc(C(F)(F)F)cc2)nc2c1CSCC2 + O=C(Oc1ccc([N+](=O)[O-])cc1)N1CCC(C(O)(c2ccc3c(c2)OCO3)c2ccc3c(c2)OCO3)CC1 [JZL184] (first compound 10 µM, partner dose 5 µM)",87.2,96.8,108,70.7,120,101,97.1,86.6,79.3,101,121,97.6,83.2,70,91.6,84.1,92.7,84.2,76.4,101
"COc1cc2ncnc(Nc3ccc(Oc4ccccc4)cc3)c2cc1OC + O=C(Oc1ccc([N+](=O)[O-])cc1)N1CCC(C(O)(c2ccc3c(c2)OCO3)c2ccc3c(c2)OCO3)CC1 [JZL184] (first compound 10 µM, partner dose 5 µM)",61.9,72.8,91.3,91.9,79.2,85.3,67.5,82.8,68.8,122,76.4,91.9,75.3,61.3,84.3,80.1,82.9,84.3,73,70.9
"COc1cc(N2CCC(N3CCN(C)CC3)CC2)ccc1Nc1ncc(Cl)c(Nc2ccccc2S(=O)(=O)C(C)C)n1 + O=C(Oc1ccc([N+](=O)[O-])cc1)N1CCC(C(O)(c2ccc3c(c2)OCO3)c2ccc3c(c2)OCO3)CC1 [JZL184] (first compound 0.4 µM, partner dose 5 µM)",87.1,110,111,98.3,79.5,86.5,107,67.9,67.4,92.5,68.5,68.7,89,54.2,86.9,62.4,65.1,72,45.5,75.8
"COc1ccc(COc2ccc(Cc3cnc(N)nc3N)cc2OC)cc1 + Cc1cc(SCc2sc(-c3ccc(C(F)(F)F)c(F)c3)nc2C)ccc1OCC(=O)O [GW0742] (first compound 5 µM, partner dose 10 µM)",89.4,97.9,93.2,92.3,101,105,92.7,96.1,97.1,121,104,90.4,89.9,72.9,71,102,87.5,82.9,98.1,100
"C#Cc1cccc(Nc2ncnc3cc(OCCOC)c(OCCOC)cc23)c1 [erlotinib] + O=C(Oc1ccc([N+](=O)[O-])cc1)N1CCC(C(O)(c2ccc3c(c2)OCO3)c2ccc3c(c2)OCO3)CC1 [JZL184] (first compound 4 µM, partner dose 5 µM)",76.1,69.1,110,80.5,76.7,83.9,95.3,82.3,60.9,101,70.8,81.7,72.5,77.5,102,86.3,78.6,91.6,59.7,72
"Cc1nc(Nc2ncc(C(=O)Nc3c(C)cccc3Cl)s2)cc(N2CCN(CCO)CC2)n1 [dasatanib] + Cc1cc(SCc2sc(-c3ccc(C(F)(F)F)c(F)c3)nc2C)ccc1OCC(=O)O [GW0742] (first compound 0.02 µM, partner dose 10 µM)",84.7,95.1,79.6,84.6,31.9,80,59.7,86.4,46.4,58.4,67.8,83.9,97.7,74,92.8,116,62,73.4,42.9,93.9
"COCC[n+]1c2c(n(Cc3cnccn3)c1C)C(=O)c1ccccc1C2=O + Cc1cc(SCc2sc(-c3ccc(C(F)(F)F)c(F)c3)nc2C)ccc1OCC(=O)O [GW0742] (first compound 0.002 µM, partner dose 10 µM)",82.3,54.4,47.9,16.5,55.7,94.1,28.6,83.4,51.7,76.4,43.1,36.2,80.4,42,28.8,95.1,80.7,84,118,57.7
"Cc1cc(Nc2cc(N3CCN(C)CC3)nc(Sc3ccc(NC(=O)C4CC4)cc3)n2)n[nH]1 [Tozasertib] + N.N.[Cl][Pt][Cl] [cisplatin] (first compound 0.03 µM, partner dose 8 µM)",86.1,105,82.6,104,79.5,75.6,110,88.5,74.9,72,72.3,99.2,103,89.5,88.9,83.3,99.7,79.3,80.1,78

# — the supplement of paper PMC4604168 (melanoma cell lines)
